The whole screen tested about 48,000 compounds, of which about 450 (0.94%) were called active. Not shown: some 19% with an inconclusive outcome. The call rests on the fitted dose curve; in most records, active means well fitted inhibition curve with a large enough effect; inconclusive means small, poorly fitted or top-dose-only effect; inactive means no such curve, though single readings can be large or run the other way. Some of the results follow.
assay: Primary qHTS for Identification of Small Molecule Inhibitors of Huntingtin Promoter Activity; details: HEK293 HTT promoter firefly luciferase reporter (activity 0% = vehicle and -100% = no light), 24 h; series mostly up to 57.5 µM; activity change, negative = inhibition: at the top concentration; further: nearly all actives have a fitted effect of over 50% in size
Procedure, shortened: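 Luminescence was read after Dual-Glo reagent and a 10 min room-temperature incubation. Values were normalized to vehicle (0% activity) and zero RLU (-100% activity). Reporter HEK293 cells had been exposed to compounds (up to 57.5 uM final) for 24 h.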

Activity change, negative = inhibition, inactive:
Cc1ccc(C)c(S(=O)(=O)c2nnn3c2nc(Nc2ccc(F)c(Cl)c2)c2sccc23)c1 5.02%
Cc1ccc2c(c1)N(C(=O)N1CCC(C(=O)NCc3ccco3)CC1)CC(C)O2 (stereo unspecified) -11.7%
Cc1ccc(S(=O)(=O)CCC(=O)N2CCN(c3nc4c(C)c(Cl)ccc4s3)CC2)cc1 -25%
Cc1cccc(C(=O)Nc2nc(-c3ccc(Br)cc3)ns2)c1 7.17%
CN=C(NC#N)NCCSCc1csc(N=C(N)N)n1 3.86%
CCOC(=O)C1CCN(C(=O)Cn2ncc3c([nH]c4ccc(C)cc43)c2=O)CC1 3.38%
CC(=O)N1CCC2(CC1)OC(=O)C(C)=C2C(=O)Nc1ccccc1C(F)(F)F -12.7%
CN(C)CCN1C(=O)c2ccccc2N(C)c2ccccc21 4.27%
CCCC(=O)OC[C@@H](OC(=O)CCC)[C@@H](OC(=O)CCC)[C@H](Cn1c2nc(=O)[nH]c(=O)c-2nc2cc(C)c(C)cc21)OC(=O)CCC -7.9%
COc1ccc(OC)c(C(O)CNC(=O)CN)c1 (stereo unspecified) 13.3%
CC(S)C(=O)NCC(=O)O (stereo unspecified)
CCCC(=O)O[C@]1(C(=O)COC(=O)CC)CC[C@H]2[C@@H]3CCC4=CC(=O)CC[C@]4(C)[C@H]3[C@@H](O)C[C@@]21C -0.4% [at 25.2 µM]
CSc1ncc(C(=O)N2CCN(c3ccc(F)cc3)CC2)c(C)n1 -7.04%
Cc1ccc(C)c(N2CCN(C(=O)c3cc(S(=O)(=O)N4CCCC4)cn3C)CC2)c1 -18.1%
CCc1nnc(SCc2nc(-c3ccc(OC)cc3)oc2C)c2cc3sccc3n12 -0.96%
Cc1ccccc1NC(=O)CN1C(=O)CCn2nc(-c3cccn3C)cc21 11.8%
Cc1sc2c(c1C)c(=O)n(-c1cccc(C(F)(F)F)c1)c(=O)n2Cc1ccccc1C#N -2.13%
CCCCn1c(-c2ccc(C)cc2)c(C)n2c3c(=O)n(C)c(=O)n(C)c3nc12 -26.9%
Cc1ncc(CO)c2c1Oc1nc(-c3ccccc3)nc(SCC(=O)Nc3cccc(C(F)(F)F)c3)c1C2 -22.1%
CCn1cc(C(=O)NCc2ccccc2Cl)c(=O)c2cc(S(=O)(=O)N3CCCCC3)ccc21 -9.11%
O=C(CSc1n[nH]c(-c2ccccc2Cl)n1)N1CCN(c2ccccc2F)CC1 -18.5%
O=C(Cc1ccccc1)Nc1cccc(-c2nc3cccnc3s2)c1 2.93%
CC1=C(C(=O)Nc2cccnc2)C(c2ccccc2)n2nc(SCc3ccccc3F)nc2N1 (stereo unspecified) -27.5%
COc1ccc(-c2coc3c2c(C)cc2oc(=O)cc(C)c23)cc1 2.88%
O=C(NC1CCCC1)c1ccc2c(c1)N(Cc1ccccc1F)C(=O)c1ccccc1S2 -8.61%
CCOc1ccc(N(CC(=O)NCc2ccc(Cl)cc2)S(=O)(=O)c2c(C)noc2C)cc1 -4.69%
Cc1c(NC(=O)c2ccc(N3CCC(C)CC3)c([N+](=O)[O-])c2)cccc1-c1nc2ccccc2o1 -30.6%
Cc1ccc(C(=O)Nc2ccc(OCc3cc(=O)n4c5c(sc4n3)CCCC5)cc2)cc1 -25.3%
Cc1cccc(N2CCN(C(=O)c3oc(=O)c4ccccc4c3-c3ccccc3)CC2)c1C -9.19%
COCCCNC(=O)C1CCC(Cn2c(=O)c3sccc3n(Cc3ccc(F)cc3)c2=O)CC1 (stereo unspecified) 4.7%
Cc1cc(NC(=O)Nc2csc3c2CCCC3)ccc1Br -6.1%
Cc1cc(C)cc(NC(=O)c2sc3nc(-c4cc5ccccc5oc4=O)[nH]c(=O)c3c2C)c1 6.55%
COC(=O)c1c(C)sc(-c2c(-c3cccc(Cl)c3)[nH]c3c2c(=O)[nH]c(=O)n3C)c1O -4.63%
O=C(NCc1ccccc1)c1csc(Nc2ccncn2)n1 -22%
Cc1cccc(N(C)C(=S)Oc2ccc3c(c2)CCC3)c1 -7.79%
COc1ccc(CCNC(=O)CCc2c(C)nc3c(c(C)nn3-c3ccccc3)c2C)c(OC)c1 0%
CCCNC(=O)CCC(=O)N1Cc2ccccc2Oc2ncccc21 6.78%
COc1ccc(C(=O)CN2C(=O)N(c3cc(C)ccc3C)S(=O)(=O)c3ccccc32)cc1 -16.6%
C=CC(=O)Nc1cc2c(Nc3ccc(F)c(Cl)c3)ncnc2cc1OCCCN1CCOCC1 -10.9%
CCOC(=O)c1c(C)oc2nc(C)nc(NC(C)c3ccccc3)c12 (stereo unspecified) -16.6%
Cc1cccc(OCC(=O)Nc2ccc3c(c2)nc(CCNC(=O)c2ccco2)n3C)c1 -3.67%
Cc1nc2c3ccccc3nc(NNC(=O)CCC(=O)N3CCN(c4ccccc4)CC3)n2n1 -13.1%
CCOc1ccc(NC(=O)CSc2nccn2Cc2ccco2)cc1 72.6%
COc1ccc(-c2nc3ccccc3s2)cc1NC(=O)COc1ccc(C)cc1 72.4%
COc1ccc(OCC(=O)OCc2cc(=O)n3cc(C)sc3n2)cc1 -21.3%
COc1ccc(NC(=O)c2cc3nc(-c4ccc(C)c(C)c4)cc(C(F)(F)F)n3n2)cc1 -4.3%
CCc1ccccc1NC(=O)c1ccc2c(O)c(S(=O)(=O)c3ccccc3)c(=O)[nH]c2c1 -15.4%
CC(C)(C)NCC(O)COc1cccc2c1CCC(=O)N2 (stereo unspecified) 9.22%
CCOC(=O)C1CCN(C(=O)CCS(=O)(=O)c2cc3c(cc2Cl)NC(=O)CO3)CC1 -7.63%
Cc1ccc(N(CC(=O)NCc2ccc(Cl)cc2)S(=O)(=O)N(C)C)cc1 -20.4%
COc1ccc(-c2cc(OC(=O)c3ccc(Cl)cc3)c3c(C)oc(C)c3c(=O)c2)cc1 -28.9%
Cc1ccc(C(=O)Nc2cccc(-c3nc4cccnc4s3)c2C)cc1 -24.9%
Cc1cccc(CN2C(=O)c3ccccc3S(=O)(=O)c3ccc(C(=O)NCCC4=CCCCC4)cc32)c1 -9.75%
CCCN1CCN(CCNC(=O)Nc2ccc(OC)cc2OC)CC1 -1.21%
O=C(CC1C(=O)N(c2ccccc2)C(=O)N1CCC1=CCCCC1)Nc1ccc(F)cc1 (stereo unspecified) -40.7%
Cc1ccccc1NC(=O)CSc1nc(-c2ccccc2C)nc2cc(=O)[nH]n12 -10.1%
COCCNC(=O)Cn1nc(N2CCN(c3ccccc3OC)CC2)ccc1=O 9.6%
CCOc1ccc(NC(=O)N2CCN(S(=O)(=O)c3ccc4c(ccn4C)c3)CC2)cc1 -17.1%
CCc1ccc(C(=O)c2cn(CC(=O)Nc3ccc(F)cc3)c3ccc(OC)cc3c2=O)cc1 -8.63%
CC(=O)N1CCN(c2csc3ccc(F)cc3c2=O)CC1 3.94%
O=C1CN(C(=O)Cc2ccc(F)cc2)C(c2ccccc2)c2cc(Cl)ccc2N1 (stereo unspecified) -28%
